# Article PMC4336329 (PLoS ONE, 2015)
# Hit rate of the full screen: of about 310,000 compounds, about 14,000 (4.5%) showed an effect of 50% or more. Effects have a minus sign here. The list shows a part of the results.
# Target: human ether-à-go-go-related gene (hERG) potassium channel (human, UniProt Q12809)
# Assay: primary screen, population patch clamp on CHO cells stably expressing hERG
# 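Also: peak tail current of the secondary pulse compared with the same well before compound.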
# human ether-à-go-go-related gene (hERG) potassium channel, sequence (Q12809 whole entry, looked up): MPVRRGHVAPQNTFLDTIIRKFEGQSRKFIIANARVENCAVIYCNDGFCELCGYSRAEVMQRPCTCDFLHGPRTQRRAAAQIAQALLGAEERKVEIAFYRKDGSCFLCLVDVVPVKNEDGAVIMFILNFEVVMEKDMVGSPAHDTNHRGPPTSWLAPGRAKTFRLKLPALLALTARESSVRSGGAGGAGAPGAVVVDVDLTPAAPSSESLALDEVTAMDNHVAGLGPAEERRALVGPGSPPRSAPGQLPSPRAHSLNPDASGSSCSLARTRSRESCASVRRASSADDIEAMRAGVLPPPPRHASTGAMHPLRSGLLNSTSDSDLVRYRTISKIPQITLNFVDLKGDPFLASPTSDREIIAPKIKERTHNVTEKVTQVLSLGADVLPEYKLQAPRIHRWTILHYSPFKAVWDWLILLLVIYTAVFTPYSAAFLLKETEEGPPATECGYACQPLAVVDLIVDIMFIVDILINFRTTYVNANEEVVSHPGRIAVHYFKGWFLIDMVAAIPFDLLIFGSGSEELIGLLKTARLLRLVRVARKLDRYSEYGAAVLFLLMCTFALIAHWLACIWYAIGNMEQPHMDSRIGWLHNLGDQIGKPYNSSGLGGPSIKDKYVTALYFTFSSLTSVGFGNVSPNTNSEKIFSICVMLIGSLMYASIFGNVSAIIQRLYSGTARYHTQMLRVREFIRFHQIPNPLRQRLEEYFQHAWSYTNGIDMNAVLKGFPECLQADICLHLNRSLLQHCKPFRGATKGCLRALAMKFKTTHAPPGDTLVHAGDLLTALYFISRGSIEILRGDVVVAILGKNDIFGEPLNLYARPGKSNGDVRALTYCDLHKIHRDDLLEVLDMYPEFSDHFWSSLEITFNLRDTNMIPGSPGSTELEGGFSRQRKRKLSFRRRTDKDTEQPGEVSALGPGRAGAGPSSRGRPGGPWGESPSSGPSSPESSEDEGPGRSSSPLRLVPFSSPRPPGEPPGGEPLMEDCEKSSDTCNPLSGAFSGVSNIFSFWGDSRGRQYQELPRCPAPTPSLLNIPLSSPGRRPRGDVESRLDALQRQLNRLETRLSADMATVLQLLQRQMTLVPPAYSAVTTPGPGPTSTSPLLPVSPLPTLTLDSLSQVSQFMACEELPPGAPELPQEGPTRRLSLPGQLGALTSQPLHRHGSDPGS
row,SMILES,"hERG current change (%, negative = inhibition) at 10uM"
1,CSCCC(NC(=O)c1ccc(Cl)cc1Cl)C(=O)NNC(=O)c1csc(N2CCOCC2)n1 (stereo not drawn),-56.8%
2,COc1ccc2c(c1)CCCN2C(N)=Nc1ccc(Cl)cc1,-63.7%
3,O=C(CSc1nnc(COc2ccc(F)cc2)o1)N1CCCCC1,1.76%
4,CCCCc1ccc(NC(=O)OC)cc1,-9.08%
5,CC(=O)Nc1cccc(NC(=O)CN2c3cccc4cccc(c34)S2(=O)=O)c1,-3.02%
6,COc1cc(C(=O)NCc2ncccc2C)ccc1OC1CCN(C(C)=O)CC1,6.34%
7,Cc1cc(C)n(CCCNC(=O)C2CC(=O)N(Cc3ccccc3)C2)n1 (stereo not drawn),5%
8,CN(C)CCCNc1c2ccccc2nc2ccccc12,-28.8%
9,Nc1nnc(SCc2ccc(F)cc2)n1-c1ccccc1,-20.3%
10,FC(F)(F)c1cccc(CNc2ncccc2-c2nc3cc(Cl)ccc3o2)c1,-4.29%
11,CC1CCC(NC(=O)CNC(=O)c2cccs2)CC1 (stereo not drawn),7.33%
12,COCCN1C(=O)C(=O)/C(=C(/O)c2cccc(OC)c2)C1c1ccncc1 (stereo not drawn),33.5%
13,COc1ccc(OCCSc2nnc3sc4ccccc4n23)cc1,-25.4%
14,CCc1nc2ccccc2c2nc3ccccc3n12,3.74%
15,COCn1c(-c2ccc(OC)c(OC)c2)nc2ccccc21,-2.29%
16,CCCn1c(SCC(=O)c2cc(OC)ccc2OC)nnc1-c1ccco1,-12.5%
17,O=C(CCNS(=O)(=O)c1cccs1)N1CCCCCC1,-8.32%
18,Cc1ccc(SCC(=O)NN2C(=O)c3ccccc3C2=O)cc1,-5.8%
19,CCOc1c(Cl)cc(C2NC(=O)NC(C)=C2C(=O)NCc2ccccc2)cc1OC (stereo not drawn),-6.49%
20,CSc1ccccc1NC(=O)c1cnc2sc(C)cn2c1=O,4.47%
21,CCOc1ccc(C(=O)COC(=O)C2COc3ccccc3O2)cc1 (stereo not drawn),15.3%
22,N#CCCN(C(=O)COC(=O)CCNS(=O)(=O)c1ccccc1)c1ccccc1,-4.77%
23,O=C(/C=C\c1ccc2c(c1)OCO2)CC1(O)C(=O)Nc2ccccc21 (stereo not drawn),-0.111%

row,SMILES,"hERG current change (%, negative = inhibition) at 10uM"
1,O=C(CN1C(=O)S/C(=C\C=C\c2ccccc2)C1=O)Nc1ccccc1C(=O)O,3.17%
2,CCOC(=O)Cc1cc(=O)n2[nH]c(-c3ccccc3)cc2n1,4.41%
3,Cl.OC(CN1CCCCCC1)CN(c1ccccc1)c1ccccc1 (stereo not drawn),-71.8%
4,CCc1ccccc1OCCCCN1CCCC1.O=C(O)C(=O)O,-40%
5,COCC(=O)NCc1nc2ccccc2[nH]1,-3.75%
6,CCc1nc2ccccc2n1CCC(C)C,-5.17%
7,C=CCN1C(=O)NC(=O)C(CCc2ccncc2)(CCc2ccncc2)C1=O,-41.8%
8,COc1ccccc1N1CC(C)(C)C(=O)N(C(=O)c2c(F)cccc2Cl)C1=S,15.1%
9,CCCCNC(=O)C(C#N)c1nc2ccccc2nc1N1CCN(c2ccccc2F)CC1 (stereo not drawn),4.79%
10,CC(C)c1cc(C(C)C)n2nc(N)nc2n1,8.66%
11,O=C(NCc1ccncc1)C(=O)NCC(c1ccco1)N1CCN(c2ccccc2)CC1 (stereo not drawn),-2.2%
12,COc1ccc(-n2ncc(N(C)n3cccc3)c(Cl)c2=O)cc1,8.9%
13,Cc1cc(NC(=O)C(C)SCC(=O)N(C)CC(=O)Nc2ccc(Br)cc2C)no1 (stereo not drawn),-1.15%
14,CCCn1nc2cc(C(=O)NCc3ccc4c(c3)OCO4)ccc2c1OCC,-8.03%
15,CCc1cc(=O)oc2cc(C)cc(OC(C)C(=O)NCc3cccnc3)c12 (stereo not drawn),-32.9%
16,CCOC(=O)c1cc(S(=O)(=O)N2CCC(C)CC2)cn1C,17.8%
17,Cc1ccc(NC(=O)CN2C(=O)NC(Cc3ccccc3)C2=O)c(Br)c1 (stereo not drawn),-5.95%
18,N#CCSc1n[nH]c2nc3c(c(=O)n12)C1(CCCCC1)Cc1ccccc1-3,10.9%
19,CCN(CC)CCN(Cc1cc2cc3c(cc2[nH]c1=O)OCO3)C(=S)NCC1CCCO1 (stereo not drawn),-34.9%
20,C=CCOc1ccccc1CNCc1ccc(F)cc1.Cl,-33.3%
21,Cc1cccc(C)c1OCC(=O)NCc1nnc(SCC(=O)NC2CCCCC2)n1C,-0.306%
22,C#C[C@]1(O)CCC2C3CCC4=CC(=O)CC[C@@H]4C3CC[C@@]21C (stereo partly drawn),-29.1%
23,COCCn1c(=O)[nH]c2cc(C(=O)Nc3cccc(F)c3)ccc2c1=O,9.25%

row,SMILES,"hERG current change (%, negative = inhibition) at 10uM"
1,CCCOc1ccc(-c2c(C(=O)N/N=C(\C)COc3ccccc3)nnn2-c2nonc2N)cc1,0.51%
2,Cn1cc(CN(CCO)Cc2cccs2)c(-c2cccc(Cl)c2)n1,-21%
3,C=CCNC(=O)Cc1ccc(S(=O)(=O)N2CCOCC2)s1,7.7%
4,CN(CC(=O)Nc1ccc(F)cc1)C(=O)CSc1nccn1C,-17%
5,Cc1ccc(OCC(COCc2ccccc2)NC(C)C)cc1.O=C(O)C(=O)O (stereo not drawn),-13.9%
6,O=C(N/N=C/c1c[nH]c2ccccc12)c1ccc(O)c(O)c1,25.7%
7,CC(CCc1ccccc1)N1CCN(Cc2ccccc2)CC1 (stereo not drawn),-75.2%
8,CCOP(=O)(c1ccccc1)C(O)c1ccc(Br)cc1 (stereo not drawn),2.86%
9,Cn1c(=O)[nH]c(=O)c2c1nc(N1CCN(c3ccccc3)CC1)n2CCSc1ncccn1,-18.9%
10,O=C(NN1C(=O)C2C(C1=O)C1C=CC2C12CC2)c1ccncc1 (stereo not drawn),11.8%
11,CC(C)CN1C(=O)N(c2ccc(Cl)cc2)C(C)(O)CC1(C)C (stereo not drawn),32.7%
12,COc1ccc(OCC(=O)NCCNC(=O)c2ccncc2)cc1,-17%
13,Cc1ccc(C2NC(=O)c3sc(=S)n(-c4ccccc4)c3N2)cc1 (stereo not drawn),48.7%
14,Cc1nc2ccccc2c(=O)n1Cc1ccco1,-7.41%
15,O=C(NCc1cccnc1)[C@@H]1CC=C[C@@H]2CCN(Cc3ccccc3)C(=O)[C@@H]21,3.16%
16,CC(C)C(C)NC(=O)COc1ccc(S(=O)(=O)N2CCOCC2)cc1[N+](=O)[O-] (stereo not drawn),12.6%
17,CC(C)(C)NC(=O)CN(C(=O)c1ccc(CN2CCOCC2)o1)c1ccc2c(c1)OCCO2,13.8%
18,CCCCn1c(=O)c(C(=O)NCc2ccc(Cl)cc2)c(O)c2ccccc21,18.8%
19,CCn1c(COc2ccc(OC)cc2)nnc1SCC(=O)Nc1cc(OC)ccc1OC,-28.4%
20,COC(=O)c1cc(CNC(=O)c2ccc(O)c(Cl)c2)ccc1OC,-17.8%
21,NC(=O)CC(NSc1ccccc1[N+](=O)[O-])C(=O)O (stereo not drawn),-5.96%
22,Cc1cc(OCC(=O)Nc2ccc(N3CCN(C)CC3)cc2)ccc1Cl,-43.4%
23,Cl.O=C(NCCCn1ccnc1)c1ccc(Br)cc1,-26.7%

row,SMILES,"hERG current change (%, negative = inhibition) at 10uM"
1,NC(=O)N/N=C/c1ccc(N2CCOCC2)s1,-4.84%
2,CCc1ccc2[nH]c(=O)c(C(c3nnnn3CC3CCCO3)N3CCCc4ccccc43)cc2c1 (stereo not drawn),19.8%
3,CCOC(=O)C1CCN(C(=O)/C(=C/c2ccccc2)NC(=O)c2ccccc2)CC1,-30%
4,O=C(NCc1ccccn1)c1nc(Cn2ccc([N+](=O)[O-])n2)no1,9.36%
5,CC(C)n1cc(CN2CCC(n3nccc3NC(=O)CCCc3ccccc3)CC2)cn1,-26%
6,Cc1cc(C(=O)O)ccc1NCc1ccncc1,18.4%
7,O=C(CN(Cc1cccs1)C(=O)CCC(=O)Nc1ccccn1)NCc1ccccc1,-19.9%
8,CCOc1ccc(NC(=O)C2CCCN(S(=O)(=O)c3c(C)noc3C)C2)cc1 (stereo not drawn),10.8%
9,COc1ccc(C(=O)c2c3ccc(OC)cc3[n+]([O-])n2CCCC(N)=O)cc1,-34.9%
10,CCOCCCNC(=O)c1ccc2c(=O)n(Cc3ccc(OC)cc3)c(=O)[nH]c2c1,29.8%
11,C=CCn1c(SCc2cc(=O)n3cc(C)ccc3n2)nnc1-c1ccc(F)cc1,-45.1%
12,CCCCCCCCC1CC(C(=O)Nc2ccccc2)C(=O)O1 (stereo not drawn),6.07%
13,Cn1c(=O)c2cc(S(=O)(=O)NC(C(=O)NCc3ccccn3)c3ccccc3)ccc2n(C)c1=O (stereo not drawn),8.31%
14,NC(=O)CSc1nc2ccccc2c(=O)n1Cc1ccccc1,-7.52%
15,CCS(=O)(=O)N1CCCC(C(=O)N2CCC3(CC2)OCCO3)C1 (stereo not drawn),7.18%
16,CSC(=S)N(C)C1CCS(=O)(=O)C1 (stereo not drawn),5.99%
17,Cn1c(=O)c(C(=O)c2ccccc2)c(O)c2ccccc21,12.8%
18,O=C(Nc1ccccc1)c1ccc(-c2ccccc2)s1,74.9%
19,COc1cccc(C2(O)C(=O)Nc3ccccc32)c1 (stereo not drawn),10.5%
20,CCOc1ccccc1N1CCN(C(=O)c2cc3c(C)cc(C)cc3[nH]2)CC1,-4.74%
21,O=C(c1ccc([N+](=O)[O-])o1)N1CCN(c2nc3c(F)cc(F)cc3s2)CC1,-54.7%
